Source: PubChem BioAssay AID1240 (Sanford-Burnham Center for Chemical Genomics, 2008)
Screen size: about 50,000 compounds; about 800 (1.6%) showed an effect of 50% or more. Some of the results follow.

These compounds were tested against Bcl-2-like protein 10 (Homo sapiens) (UniProt Q9HD36) (assay: Phenotype converters, Bcl-B/TR3 peptide binding displacement, primary biochemical FP (AID 1240;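 note: 0% = Bcl-B with tracer peptide and DMSO and 100% = tracer peptide lacking Bcl-B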)). Conditions: GST-Bcl-B / FITC-TR3 peptide fluorescence polarization; stronger effect = higher value; compound at 3.75 mg/L.
UniProt Q9HD36, sequence (Q9HD36 whole entry, looked up): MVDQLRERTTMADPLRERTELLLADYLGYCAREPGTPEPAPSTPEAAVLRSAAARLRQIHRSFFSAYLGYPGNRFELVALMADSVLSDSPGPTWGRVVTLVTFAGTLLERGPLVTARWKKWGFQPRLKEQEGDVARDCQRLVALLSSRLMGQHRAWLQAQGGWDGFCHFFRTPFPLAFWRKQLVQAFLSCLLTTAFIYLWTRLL

| Compound | displacement |
| --- | --- |
| CCOC(=O)c1c(-c2ccccc2)oc2ccc(OC(=O)C(C)(C)C)cc12 | 10.8% |
| O=C1C2C(C(=O)N1c1ccncc1)C1C=CC2C12CC2 (stereo not drawn) | -9.1% |
| COC(=O)c1sccc1NC(=O)/C=C/c1cccs1 | -4.4% |
| COc1cccc(-c2nc(-c3ccccc3)c(-c3cc([N+](=O)[O-])ccc3C)[nH]2)c1OC | 5.2% |
| COc1ccc(NC(=O)COc2cccc(C)c2)c(OC)c1 | -4.5% |
| C=CCN1C(=O)/C(=C\c2ccccc2Cl)SC1=S | 16.1% |
| Cc1ccc(NC(=O)C(=O)NCCc2ccc(Cl)cc2)cc1 | -3.5% |
| Cc1nc(-c2ccccc2)sc1C(=O)Nc1cccc(-c2cn3ccccc3n2)c1 | 8.5% |
| CCC1=NN2C(=N)/C(=C/c3cn(Cc4ccc(F)cc4)c4ccccc34)C(=O)N=C2S1 | 30.8% |
| CCC(=O)Nc1sc2c(c1C(=O)Nc1cccc3ccccc13)CCC2 | -10.9% |
| C=CCN1C(=O)/C(=C\c2cc3c(cc2Cl)OCO3)C(=O)NC1=S | -2.5% |
| CCOc1cc(C(=O)Nc2ccccc2Br)cc(OCC)c1OCC | 3.1% |
| CCN(CC)CCCOc1ccccc1OC | -0.5% |
| CCOC(=O)c1c(NC(=O)c2ccc(Cl)c([N+](=O)[O-])c2)sc(C(=O)Nc2ccccc2C(F)(F)F)c1C | -6% |
| CCOn1c(=O)c(C)[n+]([O-])c2ccccc21 | 14.9% |
| CCOc1ccc(N(CC(=O)N2CCCCC2)S(=O)(=O)c2ccc(Br)cc2)cc1 | 0.6% |
| O=C(NCCCNc1ccc([N+](=O)[O-])cc1Cl)c1ccccc1Cl | -7.6% |
| COc1cccc(C(=O)Nc2sc3c(c2C(N)=O)CCC(C)C3)c1 (stereo not drawn) | 6% |
| O=C(CSc1nsc(SCC(=O)C2CC2)n1)C1CC1 | 5.9% |
| O=C1CC(=O)N(c2cccc(Cl)c2)N1 | 18.8% |
| CCC1(C)CC(CCNCc2ccc(F)cc2)(c2ccc(OC)cc2)CCO1 (stereo not drawn) | -10.9% |
| CCc1ccccc1N(CC(=O)Nc1cc(C)ccc1C)S(C)(=O)=O | -12.2% |

| Compound | displacement |
| --- | --- |
| CCCC(=O)Nc1cccc(-c2cc3ccccc3oc2=O)c1 | 7.8% |
| CCOC(=O)C(=CNc1cc(Cl)ccc1OC)C(=O)OCC | 10.6% |
| Cc1sc(NC(=O)/C=C/c2ccccc2)c(C(=O)OC(C)C)c1C | 12.9% |
| COc1ccc(OCc2nc(-c3cccnc3)no2)cc1 | 0.8% |
| CCOC(=O)C1=C(C)N=c2s/c(=C\c3cc4c(cc3Br)OCO4)c(=O)n2C1c1ccc(OC)cc1 (stereo not drawn) | 1.9% |
| CS(=O)(=O)N(CC(O)Cn1c2ccc(Cl)cc2c2cc(Cl)ccc21)c1ccccc1 (stereo not drawn) | 6.9% |
| CSc1ccccc1C(=O)O/N=C1\CCCc2c1ccc(O)c2C | -4.1% |
| COCCNC(=O)Nc1ccc2nc3c4ccccc4c4ccccc4c3nc2c1 | 3.9% |
| COc1ccc(/C(C)=N\N2CCN(Cc3ccc(Cl)cc3)CC2)cc1OC | 11.4% |
| COc1ccc(OC)c(C2C(C(=O)OCCc3ccccc3)=C(C)NC3=C2C(=O)CC(C)(C)C3)c1 (stereo not drawn) | -10.3% |
| O=c1c2ccccc2c(=O)c2c1c(O)cc1sc3ccccc3[nH]c12 | 11% |
| COc1ccccc1-c1c(C(F)(F)F)oc2cc(OC(=O)c3ccccc3C)ccc2c1=O | 16.9% |
| C=CCOc1ccc(/C=C2\C(=O)C(C(=O)OC)=C(C)N2c2ccc(F)cc2)cc1 | 127% |
| CCCOC(=O)c1ccc(NC(=S)Nc2ccc(F)cc2)cc1 | 2.8% |
| O=C(Nc1ccccc1C(=O)NCCc1ccccc1)c1ccco1 | -2.8% |
| CCOC(=O)c1c(NC(=O)COc2ccc(Br)c(C)c2)sc2c1CCC2 | 17.3% |
| CCC(Sc1nnc2c3ccccc3n(C)c2n1)C(=O)Nc1ncccc1Cl (stereo not drawn) | 13.2% |
| CCn1cc(C(=O)NN)c(=O)c2cc(F)c(N3CCCCC3)cc21 | 17.4% |
| Cc1ccc(OCC(=O)Nc2cc(C)ccc2C)cc1 | 8.8% |
| CCOc1ccccc1NC(=O)c1c(NC(=O)c2ccccc2)sc2c1CCC2 | -5.4% |
| Ic1cccc(-c2nnc3ccc4ccccc4n23)c1 | -6.9% |
| CCOC(=O)CCN1C(=O)/C(=C/c2ccc(Cl)cc2Cl)SC1=S | 38.1% |

| Compound | displacement |
| --- | --- |
| Cc1ccc(C(C)C)c(OCC(=O)Nc2ccc(-c3nc4ncccc4o3)cc2)c1 | 3.1% |
| N#Cc1c(/N=C/c2cc(Br)cc(I)c2O)sc2c1CCCC2 | 18.9% |
| COc1ccc(N2C(=O)/C(=C/c3ccc(-c4ccc(C(=O)O)cc4)o3)C(=O)NC2=S)cc1 | -28.2% |
| CC(C)CCn1c(COc2ccccc2)nc2ccccc21 | -15.5% |
| COc1cc(-c2cc(C(F)(F)F)n3ncc(C(=O)NCc4cccnc4)c3n2)cc(OC)c1OC | 4.3% |
| CCOC(=O)c1c(NC(=S)NCc2ccccc2)sc2c1CCC2 | 21.3% |
| COC(=O)C1=NN(C(=O)c2ccccc2)C(O)(c2ccc(Cl)cc2)C1 (stereo not drawn) | 2.3% |
| COC(=O)C1=C(C)NC(=O)/C1=C\c1ccc(OC)cc1 | 5.9% |
| COc1ccc(N(CC(=O)N2CCCC2)S(C)(=O)=O)cc1Cl | -5.6% |
| CCOC(=O)c1c(NC(=O)c2cc(-c3ccccc3)nc3ccccc23)sc(C(N)=O)c1C | 1.7% |
| Cc1cc(Br)ccc1N1C(=O)c2ccc(S(=O)(=O)c3ccc(C(=O)O)cc3)cc2C1=O | 7% |
| COC(=O)c1c(NC(=O)c2ccncc2)sc2c1C(C(=O)OC)CC2 (stereo not drawn) | 32% |
| O=C(N/N=C/c1cccs1)c1ccc([N+](=O)[O-])cc1Cl | -0.3% |
| COc1cc2c(cc1NC(=O)c1ccccc1OC)oc1ccccc12 | 24% |
| Cc1ccc(OCCc2c(C)n[nH]c2C)c(Cl)c1 | -17.1% |
| CC(C)(C)C1(O)CC(c2ccccc2)=NO1 (stereo not drawn) | 18.6% |
| O=C(Nc1ccc(Cl)c(Cl)c1)C(=O)NC1CCCC1 | 2.1% |
| O=C(NC1C2CC3CC(C2)CC1C3)c1ccc(I)cc1 (stereo not drawn) | 9.4% |
| O=C(Nc1ccc(F)cc1F)c1cc(-c2ccccc2)nc2ccccc12 | -10.4% |
| Cc1cc(NS(=O)(=O)c2ccc(Nc3nc(-c4ccncc4)cs3)cc2)no1 | 10.4% |
| COc1ccc(C2=C/C(=C/c3ccc(OC)cc3OC)C(=O)O2)cc1 | 144% |
| Cc1cccc(/C(N)=N/OC(=O)COc2ccc(Br)cc2)c1 | 3.2% |

| Compound | displacement |
| --- | --- |
| CCOC(=O)c1ccc(-c2ccc(C(=O)Nc3cccc(-c4nc5ncccc5o4)c3C)o2)cc1 | 26.2% |
| COc1cccc2sc(NC(=O)c3ccc(S(=O)(=O)N4CCCCC4)cc3)nc12 | 3.1% |
| COc1ccc(C)cc1NC(=O)/C=C/c1ccc(Cl)cc1Cl | -7.3% |
| CCOc1ccc2nc(SCC(=O)Nc3cc(Cl)ccc3Cl)sc2c1 | 3.4% |
| Cc1ccccc1C(=O)NNC(=O)C(C)C | -10.9% |
| Cc1cc(C)c(S(=O)(=O)NCC#N)c(C)c1 | -9.7% |
| COc1ccc(Cl)cc1C(=O)Nc1ccc(S(=O)(=O)NC(C)=O)cc1 | 3.3% |
| O=C(NCCc1ccccc1)C1CC(=O)N(c2ccc(Br)cc2)C1 (stereo not drawn) | -2.5% |
| Cc1c[n+]2ccsc2n1CCCS(=O)(=O)[O-] | -7.9% |
| O=C1CC(NCc2ccc(F)cc2)C(=O)N1c1ccc(Cl)cc1 (stereo not drawn) | -24.8% |
| O=C(Nc1ccc(Cl)cc1)O/N=C/c1ccc([N+](=O)[O-])cc1 | -2.7% |
| COc1cc(/C=N/N2CCN(c3ccccc3)CC2)cc(OC)c1O | 13.4% |
| COc1cc(NC(=O)c2cc(Br)ccc2OC)ccc1NC(=O)c1ccco1 | -2.7% |
| O=C(NC(=S)Nc1ccc2oc(-c3cc(I)ccc3Cl)nc2c1)c1ccco1 | 12.6% |
| COc1cccc(/C=C2\SC(N3CCOCC3)=NC2=O)c1O | -11% |
| C=CCOC(=O)C1=C(C)N(CC)C(=O)NC1c1ccc([N+](=O)[O-])cc1 (stereo not drawn) | 16.7% |
| COc1ccccc1C/C(N)=N/OC(=O)COc1ccc(Br)cc1 | 5.9% |
| COc1ccc(/C=C2/SC(=O)N(CNc3ccc(I)cc3)C2=O)cc1 | -0.6% |
| O=C(Nc1ccc(N2CCOCC2)cc1)C(c1ccccc1)c1ccccc1 | -13% |
| COc1ccccc1N1CCN(C(=O)c2cc3n(n2)C(C(F)(F)F)CC(c2ccc(Cl)c(Cl)c2)N3)CC1 (stereo not drawn) | 11.5% |
| CCOc1ccccc1NC(=O)c1c(NC(=O)C(C)(C)C)sc2c1CCCC2 | -8.4% |
| COc1ccc(S(=O)(=O)NCc2ccc3c(c2)OCO3)cc1[N+](=O)[O-] | 4.4% |

| Compound | displacement |
| --- | --- |
| CC(=O)NC1=NC(=O)/C(=C\c2ccc(-c3ccccc3[N+](=O)[O-])o2)S1 | -4% |
| O=C1NC(=S)N(c2ccccc2)C(=O)/C1=C/c1ccc(Cl)cc1Cl | 6.2% |
| O=C(NCCN1C(=O)c2ccccc2C1(O)c1ccc(Cl)cc1)Nc1ccccc1 (stereo not drawn) | -5.8% |
| Cc1ccccc1OCC(=O)Nc1ccc(C(C)C)cc1 | -6.6% |
| COc1cc(C(=O)N2CCCCCC2)cc(OC)c1OC | -5.7% |
| COc1ccc(-c2nc3cc(NC(=O)COc4ccc5ccccc5c4)ccc3o2)cc1OC | 5.9% |
| COc1ccc(-c2nc(-c3cc(OC)c(OC)c(OC)c3)no2)cc1OC | -5.7% |
| Cc1cc(C)c(S(=O)(=O)Nc2ccc(Br)c3cccnc23)c(C)c1 | 7.2% |
| CCOC(=O)COc1cccc2nsnc12 | 0% |
| O=C(N/N=C/c1cccc(O)c1O)c1ccc(-c2ccccc2)cc1 | -8.6% |
| COc1ccc2c(c1OC)C(=O)N(c1nc(-c3ccc(O)cc3)cs1)C2=O | 1.7% |
| CCc1ccc(NS(=O)(=O)c2ccc(NC(C)=O)cc2)cc1 | 3.9% |
| Cc1cc2nc(-c3cc(NC(=O)COc4ccc(Cl)cc4Cl)ccc3O)oc2cc1C | 11.2% |
| O=C(/C=C/c1ccccc1)C1=C(O)C(=O)N(c2cccc(C(F)(F)F)c2)C1c1ccc([N+](=O)[O-])cc1 (stereo not drawn) | 7% |
| Cc1ccccc1NC(=O)c1c(NC(=O)Cc2ccccc2)sc2c1CCC(C)C2 (stereo not drawn) | -4.9% |
| Cc1cccc(OCC(=O)Nc2nc3ccccc3s2)c1 | -10.5% |
| O=C1OC(c2ccccc2F)=N/C1=C\c1cccc2ccccc12 | 78.4% |
| CCC1=NN(C(=O)c2cccnc2)C(O)(c2ccncc2)C1 (stereo not drawn) | -12% |
| O=C(c1ccc(Br)o1)N1CCN(c2ccc([N+](=O)[O-])cc2)CC1 | -7.2% |
| O=C(O)c1cc(S(=O)(=O)N2CCCCC2)ccc1O | -1.5% |
